The source gives many values for each of these; only a part stands here.
Tested on: 766 cancer cell lines
Assay: Large-scale cell-line viability measurements (766 cancer cell lines, 72 h, AUC)
Assay type: cell-based, human
Description: Cell lines were treated for 72 hours with concentrations ranging from 66.4 μM-2 nM in 2-fold step dilutions.
To characterize cellular sensitivity to DNMDP further, 766 genomically characterized cancer cell lines were screened for DMNDP sensitivity at concentrations ranging from 66.4 μM to 2 nM in 2-fold dilution steps for 72 hours. From these cell lines, 22 cell lines were categorized as sensitive with a robust Z-score lower than −4, which represented multiple lineages including multiple melanoma cell lines, amongst others (Table 1).
The sensitivity of […] cancer cell lines (CCLs) was measured drawn from 23 different lineages to DNMDP. Each cell line was plated in its preferred media in white opaque 1536-plates at a density of 500 cells/well. After incubating overnight, DNMDP was added by acoustic transfer at 16 concentrations ranging from 66.4 μM-2 nM in 2-fold steps in duplicate (Labcyte Echo 555, Labcyte Inc., Sunnyvale, Calif.). After 72 hours treatment, cellular ATP levels were measured as a surrogate for viability (CELLTITERGLO®, Promega Corporation, Madison, Wis.) according to manufacturer's protocols using a ViewLux Microplate Imager (PerkinElmer, Waltham, Mass.) and normalized to background (media-only) and vehicle (DMSO)-treated control wells.
Concentration response curves were fit using nonlinear fits to 2- or 3-parameter sigmoid functions through all 16 concentrations with the low-concentration asymptote set to the DMSO-normalized value, and an optimal 8-point dose curve spanning the range of compound-sensitivity was identified. The area under the 8-point dose curve (AUC) was computed by numeric integration as a metric for sensitivity for further analysis. Similar sensitivity measurements have been obtained for a collection of 480 other compounds, enabling analyses that identify cell lines responding uniquely to DNMDP (see Broad Institute Cancer Therapeutics Response Portal, a dataset to identify comprehensively relationships between genetic and lineage features of human cancer cell lines and small-molecule sensitivities for complete list of compounds).

[1] = cell line NUGC4, STOMACH, 72 hours
[2] = cell line OAW42, OVARY, 72 hours
[3] = cell line OCIAML3 (HAEMATOPOIETIC AND LYMPHOID TISSUE)
[4] = cell line OCIM1, HAEMATOPOIETIC AND LYMPHOID TISSUE, 72 hours
[5] = cell line OV56, OVARY, 72 hours
[6] = cell line P3HR1, HAEMATOPOIETIC AND LYMPHOID TISSUE, 72 hours
[7] = cell line P12ICHIKAWA (HAEMATOPOIETIC AND LYMPHOID TISSUE)
[8] = cell line PECAPJ49 (UPPER AERODIGESTIVE TRACT)
[9] = cell line PFEIFFER (HAEMATOPOIETIC AND LYMPHOID TISSUE)
[10] = cell line RAJI (HAEMATOPOIETIC AND LYMPHOID TISSUE)
[11] = cell line RCHACV (HAEMATOPOIETIC AND LYMPHOID TISSUE)
[12] = cell line RCM1 (LARGE INTESTINE)
[13] = cell line RI1, HAEMATOPOIETIC AND LYMPHOID TISSUE, 72 hours
[14] = cell line RL952, ENDOMETRIUM, 72 hours
[15] = cell line RPMI7951, SKIN, 72 hours
[16] = cell line RPMI8226 (HAEMATOPOIETIC AND LYMPHOID TISSUE)
[17] = cell line RT112 (URINARY TRACT)
[18] = cell line S117, SOFT TISSUE, 72 hours
[19] = cell line SAOS2, BONE, 72 hours
[20] = cell line SCC25 (UPPER AERODIGESTIVE TRACT)
[21] = cell line SF126 (CENTRAL NERVOUS SYSTEM)
[22] = cell line SIGM5, HAEMATOPOIETIC AND LYMPHOID TISSUE, 72 hours
[23] = cell line SIMA, AUTONOMIC GANGLIA, 72 hours
[24] = cell line SKBR3, BREAST, 72 hours
[25] = cell line SKM1, HAEMATOPOIETIC AND LYMPHOID TISSUE, 72 hours
[26] = cell line SKMEL28, SKIN, 72 hours
[27] = cell line SKNAS, AUTONOMIC GANGLIA, 72 hours
[28] = cell line SKNDZ (AUTONOMIC GANGLIA)
[29] = cell line SNU46, UPPER AERODIGESTIVE TRACT, 72 hours
[30] = cell line SNU61, LARGE INTESTINE, 72 hours
[31] = cell line SNU216, STOMACH, 72 hours
[32] = cell line SNU283 (LARGE INTESTINE)
[33] = cell line SNU308 (BILIARY TRACT)
[34] = cell line SNU407 (LARGE INTESTINE)
[35] = cell line SNU466, CENTRAL NERVOUS SYSTEM, 72 hours
[36] = cell line SNU475, LIVER, 72 hours
[37] = cell line SNU489, CENTRAL NERVOUS SYSTEM, 72 hours
[38] = cell line SNU601, STOMACH, 72 hours
[39] = cell line SNU626 (CENTRAL NERVOUS SYSTEM)

## CCN(CC)c1ccc(C2=NNC(=O)CC2C)cc1[N+](=O)[O-] (stereo not shown) [DNMDP, 6-(4-(diethylamino)-3-nitrophenyl)-5-methyl-4,5-dihydropyridazin-3(2H)-one]
Cell line NUGC3 (STOMACH)
  Robust Z-score: 0.3338
[1]
  DNMDP AUC: 7.2991
  Robust Z-score: 0.6974
[2]
  DNMDP AUC: 7.1038
  Robust Z-score: 0.4924
Cell line OC314 (OVARY)
  DNMDP AUC: 7.0273
  Robust Z-score: 0.4121
[3]
  DNMDP AUC: 6.7152
  Robust Z-score: 0.08455
[4]
  DNMDP AUC: 7.1253
  Robust Z-score: 0.515
Cell line OE19 (OESOPHAGUS)
  DNMDP AUC: 6.7273
  Robust Z-score: 0.09725
Cell line OE33 (OESOPHAGUS)
  DNMDP AUC: 6.5749
  Robust Z-score: −0.06272
Cell line OV7 (OVARY)
  DNMDP AUC: 6.7346
  Robust Z-score: 0.1049
[5]
  DNMDP AUC: 7.2957
  Robust Z-score: 0.6939
Cell line OV90 (OVARY)
  DNMDP AUC: 6.7381
  Robust Z-score: 0.1086
Cell line OVCAR4 (OVARY)
  DNMDP AUC: 6.5755
  Robust Z-score: −0.06209
Cell line OVCAR8 (OVARY)
  DNMDP AUC: 6.8637
  Robust Z-score: 0.2404
Cell line OVISE (OVARY)
  DNMDP AUC: 6.6514
  Robust Z-score: 0.01758
Cell line OVK18 (OVARY)
  DNMDP AUC: 6.9579
  Robust Z-score: 0.3393
Cell line OVKATE (OVARY)
  DNMDP AUC: 6.8742
  Robust Z-score: 0.2514
Cell line OVSAHO (OVARY)
  DNMDP AUC: 6.7028
  Robust Z-score: 0.07153
[6]
  DNMDP AUC: 7.2973
  Robust Z-score: 0.6955
[7]
  DNMDP AUC: 6.8951
  Robust Z-score: 0.2734
Cell line PANC1 (PANCREAS)
  DNMDP AUC: 7.0096
  Robust Z-score: 0.3936
Cell line PANC0203 (PANCREAS)
  DNMDP AUC: 7.0662
  Robust Z-score: 0.453
Cell line PANC0403 (PANCREAS)
  DNMDP AUC: 6.5578
  Robust Z-score: −0.08067
Cell line PANC0813 (PANCREAS)
  DNMDP AUC: 6.751
  Robust Z-score: 0.1221
Cell line PATU8902 (PANCREAS)
  DNMDP AUC: 6.9874
  Robust Z-score: 0.3703
Cell line PATU8988T (PANCREAS)
  DNMDP AUC: 6.8099
  Robust Z-score: 0.184
Cell line PC3 (PROSTATE)
  DNMDP AUC: 6.9226
  Robust Z-score: 0.3022
[8]
  DNMDP AUC: 6.7927
  Robust Z-score: 0.1659
[9]
  DNMDP AUC: 6.6804
  Robust Z-score: 0.04802
Cell line PK1 (PANCREAS)
  DNMDP AUC: 6.6156
  Robust Z-score: −0.02
Cell line PK45H (PANCREAS)
  DNMDP AUC: 6.5666
  Robust Z-score: −0.07143
Cell line PK59 (PANCREAS)
  DNMDP AUC: 6.7163
  Robust Z-score: 0.0857
Cell line PLCPRF5 (LIVER)
  DNMDP AUC: 6.584
  Robust Z-score: −0.05316
Cell line PSN1 (PANCREAS)
  DNMDP AUC: 6.6403
  Robust Z-score: 0.005931
Cell line QGP1 (PANCREAS)
  DNMDP AUC: 6.9517
  Robust Z-score: 0.3328
[10]
  DNMDP AUC: 7.0524
  Robust Z-score: 0.4385
Cell line RCC10RGB (KIDNEY)
  DNMDP AUC: 6.9009
  Robust Z-score: 0.2795
[11]
  DNMDP AUC: 6.6426
  Robust Z-score: 0.008345
[12]
  DNMDP AUC: 6.8231
  Robust Z-score: 0.1978
Cell line RERFLCMS (LUNG)
  DNMDP AUC: 6.6512
  Robust Z-score: 0.01737
Cell line RH41 (SOFT TISSUE)
  DNMDP AUC: 7.0285
  Robust Z-score: 0.4134
[13]
  DNMDP AUC: 7.5915
  Robust Z-score: 1.004
[14]
  DNMDP AUC: 7.1432
  Robust Z-score: 0.5338
[15]
  DNMDP AUC: 7.375
  Robust Z-score: 0.7771
[16]
  DNMDP AUC: 6.8256
  Robust Z-score: 0.2004
[17]
  DNMDP AUC: 6.8313
  Robust Z-score: 0.2064
[18]
  DNMDP AUC: 8.2668
  Robust Z-score: 1.713
[19]
  DNMDP AUC: 7.1406
  Robust Z-score: 0.5311
Cell line SBC5 (LUNG)
  DNMDP AUC: 6.8494
  Robust Z-score: 0.2254
[20]
  DNMDP AUC: 6.5527
  Robust Z-score: −0.08602
[21]
  DNMDP AUC: 6.7933
  Robust Z-score: 0.1665
Cell line SH10TC (STOMACH)
  DNMDP AUC: 6.5448
  Robust Z-score: −0.09431
[22]
  DNMDP AUC: 7.1077
  Robust Z-score: 0.4965
[23]
  DNMDP AUC: 7.6032
  Robust Z-score: 1.017
Cell line SJSA1 (BONE)
  DNMDP AUC: 6.6844
  Robust Z-score: 0.05222
[24]
  DNMDP AUC: 7.5494
  Robust Z-score: 0.9602
Cell line SKES1 (BONE)
  DNMDP AUC: 6.9576
  Robust Z-score: 0.339
Cell line SKHEP1 (LIVER)
  DNMDP AUC: 6.5773
  Robust Z-score: −0.0602
[25]
  DNMDP AUC: 7.5234
  Robust Z-score: 0.9329
Cell line SKMEL1 (SKIN)
  DNMDP AUC: 6.742
  Robust Z-score: 0.1127
Cell line SKMEL2 (SKIN)
  DNMDP AUC: 6.8019
  Robust Z-score: 0.1756
Cell line SKMEL24 (SKIN)
  DNMDP AUC: 6.6712
  Robust Z-score: 0.03836
[26]
  DNMDP AUC: 7.1392
  Robust Z-score: 0.5296
Cell line SKMEL30 (SKIN)
  DNMDP AUC: 7.079
  Robust Z-score: 0.4664
Cell line SKMEL31 (SKIN)
  DNMDP AUC: 6.5659
  Robust Z-score: −0.07216
Cell line SKMES1 (LUNG)
  DNMDP AUC: 6.5724
  Robust Z-score: −0.06534
[27]
  DNMDP AUC: 7.145
  Robust Z-score: 0.5357
[28]
  DNMDP AUC: 6.7192
  Robust Z-score: 0.08875
Cell line SKNMC (BONE)
  DNMDP AUC: 6.7533
  Robust Z-score: 0.1245
Cell line SNGM (ENDOMETRIUM)
  DNMDP AUC: 6.6038
  Robust Z-score: −0.03238
[29]
  DNMDP AUC: 7.8035
  Robust Z-score: 1.227
[30]
  DNMDP AUC: 7.6228
  Robust Z-score: 1.037
Cell line SNU182 (LIVER)
  DNMDP AUC: 7.0252
  Robust Z-score: 0.4099
Cell line SNU213 (PANCREAS)
  DNMDP AUC: 6.9923
  Robust Z-score: 0.3754
[31]
  DNMDP AUC: 7.6319
  Robust Z-score: 1.047
[32]
  DNMDP AUC: 6.6315
  Robust Z-score: −0.003306
[33]
  DNMDP AUC: 6.8314
  Robust Z-score: 0.2065
[34]
  DNMDP AUC: 6.8062
  Robust Z-score: 0.1801
Cell line SNU410 (PANCREAS)
  DNMDP AUC: 7.0646
  Robust Z-score: 0.4513
[35]
  DNMDP AUC: 7.7589
  Robust Z-score: 1.18
[36]
  DNMDP AUC: 7.4091
  Robust Z-score: 0.8129
[37]
  DNMDP AUC: 7.2056
  Robust Z-score: 0.5993
[38]
  DNMDP AUC: 7.3091
  Robust Z-score: 0.7079
[39]
  DNMDP AUC: 6.8886
  Robust Z-score: 0.2666
Cell line SNU668 (STOMACH)
  DNMDP AUC: 7.0126

Source: patent US11207320B2, “Compositions and methods for cancer expressing PDE3A or SLFN12” (The Broad Institute, Inc., priority 2015, dated 2021)
